At least one read-out could not be matched to a standard name with certainty.
Experiments:
ECL1002 [1] = assay: Tigemonam potentiation (MPC@4), strain ECL1002; assay type: cell-based; conditions: minimum BLI concentration inhibiting growth with tigemonam at 4 ag/mL (so in the source); BLI up to 40
EC1010 (CMY-6) [2] = assay: Tigemonam potentiation (MPC@4), strain EC1010; assay type: cell-based; conditions: minimum BLI concentration inhibiting growth with tigemonam at 4 ag/mL (so in the source); BLI up to 40
KP1004 (KPC-2) [3] = assay: Biapenem potentiation (MPC@1), strain KP1004; assay type: cell-based; conditions: minimum BLI concentration inhibiting growth with biapenem at 1 (MPC@1); BLI up to 40
Text: (§1) Biapenem was present in the test medium at 1 Dg/mL. […] Table 4 summarizes the BLI potency of biapenem potentiation (MPC@1) for two strains overexpressing class A (KPC) and class D (OXA-48) carbapenemases. Biapenem MIC for each strain is also shown.

KP1086 (OXA-48) = assay: Biapenem potentiation (MPC@1), strain KP1086; assay type: cell-based; conditions: minimum BLI concentration inhibiting growth with biapenem at 1 (MPC@1); BLI up to 40
Text: as §1

KP1081 (NDM-1) = assay: Biapenem potentiation (MPC@1), strain KP1081; assay type: cell-based; conditions: minimum BLI concentration inhibiting growth with biapenem at 1 (MPC@1); BLI up to 40
KP1054 (VIM-1) = assay: Biapenem potentiation (MPC@1), strain KP1054; assay type: cell-based; conditions: minimum BLI concentration inhibiting growth with biapenem at 1 (MPC@1); BLI up to 40
AB1053 (OXA-72) = assay: Meropenem potentiation (MPC@8), strain AB1053; assay type: cell-based, Acinetobacter baumannii; conditions: minimum BLI concentration inhibiting growth with meropenem at 8 (MPC@8); BLI up to 20
KP1004 (KPC-2) [4] = assay: Aztreonam potentiation (MPC@4), strain KP1004; conditions: minimum BLI concentration inhibiting growth with aztreonam at 4 μg/mL; BLI up to 40 μg/mL
ECL1002 [5] = assay: Aztreonam potentiation (MPC@4), strain ECL1002; conditions: minimum BLI concentration inhibiting growth with aztreonam at 4 μg/mL; BLI up to 40 μg/mL
ec308 (SHV-5) [6] = assay: Tigemonam potentiation (MPC@4), strain ec308; assay type: cell-based; conditions: minimum BLI concentration inhibiting growth with tigemonam at 4 ag/mL (so in the source); BLI up to 40
ec308 (SHV-5) [7] = assay: Aztreonam potentiation (MPC@4), strain ec308; conditions: minimum BLI concentration inhibiting growth with aztreonam at 4 μg/mL; BLI up to 40 μg/mL
KP1009 (CTX-M-15) [8] = assay: Aztreonam potentiation (MPC@4), strain KP1009; conditions: minimum BLI concentration inhibiting growth with aztreonam at 4 μg/mL; BLI up to 40 μg/mL
KP1010 (SHV-12) [9] = assay: Aztreonam potentiation (MPC@4), strain KP1010; conditions: minimum BLI concentration inhibiting growth with aztreonam at 4 μg/mL; BLI up to 40 μg/mL
EC1010 (CMY-6) [10] = assay: Aztreonam potentiation (MPC@4), strain EC1010; conditions: minimum BLI concentration inhibiting growth with aztreonam at 4 μg/mL; BLI up to 40 μg/mL
KP1009 (CTX-M-15) [11] = assay: Tigemonam potentiation (MPC@4), strain KP1009; conditions: minimum BLI concentration inhibiting growth with tigemonam at 4 ag/mL (so in the source); BLI up to 40
KP1010 (SHV-12) [12] = assay: Tigemonam potentiation (MPC@4), strain KP1010; conditions: minimum BLI concentration inhibiting growth with tigemonam at 4 ag/mL (so in the source); BLI up to 40

SMILES	TIG MPC4 ECL1002 (ECL1002 [1])	TIG MPC4 CMY-6 EC1010 (EC1010 (CMY-6) [2])	BPM MPC1 KP1004 KPC-2 (KP1004 (KPC-2) [3])	BPM MPC1 OXA-48 KP1086 (KP1086 (OXA-48))	BPM MPC1 KP1081 NDM-1 (KP1081 (NDM-1))	BPM MPC1 KP1054 VIM-1 (KP1054 (VIM-1))	MPM MPC8 AB1053 OXA-72 (AB1053 (OXA-72))	AZT MPC4 KPC-2 KP1004 (KP1004 (KPC-2) [4])	AZT MPC4 ECL1002 (ECL1002 [5])	TIG MPC4 SHV-5 ec308 (ec308 (SHV-5) [6])	AZT MPC4 SHV-5 ec308 (ec308 (SHV-5) [7])	AZT MPC4 CTX-M-15 KP1009 (KP1009 (CTX-M-15) [8])	AZT MPC4 SHV-12 KP1010 (KP1010 (SHV-12) [9])	AZT MPC4 CMY-6 EC1010 (EC1010 (CMY-6) [10])	TIG MPC4 CTX-M-15 KP1009 (KP1009 (CTX-M-15) [11])	TIG MPC4 SHV-12 KP1010 (KP1010 (SHV-12) [12])
O=C(O)c1nccc2c1OB(O)[C@H]1C[C@@H]21 [Compound 20, (1aS,7bR)-2-hydroxy-1a,7b-dihydro-1H-cyclopropa[6,7]oxaborinino[2,3-c]pyridine-4-carboxylic acid]	X (X = MPC@4 ≤ 5 μg/mL)	X (X = MPC@4 ≤ 5 μg/mL)	X (X = MPC@1 ≤ 5 μg/mL)	X (X = MPC@1 ≤ 5 μg/mL)	Y (Y = 5 μg/mL < MPC@1 ≤ 20 μg/mL)	Y (Y = 5 μg/mL < MPC@1 ≤ 20 μg/mL)	Z (Z = MPC@1 > 20 μg/mL)	X (X = MPC@4 ≤ 5 μg/mL)	Y (Y = 5 μg/mL < MPC@4 ≤ 20 μg/mL)	–	–	–	–	–	–	–
O=C(O)c1nccc2c1OB(O)[C@@H]1C[C@H]21 [Compound 21, (1aR,7bS)-2-hydroxy-1a,7b-dihydro-1H-cyclopropa[6,7]oxaborinino[2,3-c]pyridine-4-carboxylic acid]	X (X = MPC@4 ≤ 5 μg/mL)	X (X = MPC@4 ≤ 5 μg/mL)	X (X = MPC@1 ≤ 5 μg/mL)	X (X = MPC@1 ≤ 5 μg/mL)	X (X = MPC@1 ≤ 5 μg/mL)	X (X = MPC@1 ≤ 5 μg/mL)	Z (Z = MPC@1 > 20 μg/mL)	X (X = MPC@4 ≤ 5 μg/mL)	X (X = MPC@4 ≤ 5 μg/mL)	–	–	–	–	–	–	–
COc1ccc2c(c1C(=O)O)OB(O)C1(CO)CC21 (stereo not drawn) [Compound 22, 2,2-dihydroxy-1a-(hydroxymethyl)-5-methoxy-1,7b-dihydrocyclopropa[c][1,2]benzoxaborinine-4-carboxylic acid]	X (X = MPC@4 ≤ 5 μg/mL)	X (X = MPC@4 ≤ 5 μg/mL)	X (X = MPC@1 ≤ 5 μg/mL)	X (X = MPC@1 ≤ 5 μg/mL)	X (X = MPC@1 ≤ 5 μg/mL)	X (X = MPC@1 ≤ 5 μg/mL)	X (X = MPC@1 ≤ 5 μg/mL)	X (X = MPC@4 ≤ 5 μg/mL)	X (X = MPC@4 ≤ 5 μg/mL)	–	–	–	–	–	–	–
COc1ccc2c(c1C(=O)O)OB(O)[C@@H]1COC[C@H]21 [Compound 23, (3aS,9bS)-4,4-dihydroxy-7-methoxy-1,3,3a,9b-tetrahydrofuro[3,4-c][1,2]benzoxaborinine-6-carboxylic acid]	X (X = MPC@4 ≤ 5 μg/mL)	X (X = MPC@4 ≤ 5 μg/mL)	X (X = MPC@1 ≤ 5 μg/mL)	Y (Y = 5 μg/mL < MPC@1 ≤ 20 μg/mL)	X (X = MPC@1 ≤ 5 μg/mL)	X (X = MPC@1 ≤ 5 μg/mL)	Z (Z = MPC@1 > 20 μg/mL)	X (X = MPC@4 ≤ 5 μg/mL)	X (X = MPC@4 ≤ 5 μg/mL)	–	–	–	–	–	–	–
COc1ccc2c(c1C(=O)O)OB(O)C1=C2COC1 [Compound 24, 4,4-dihydroxy-7-methoxy-1,3-dihydrofuro[3,4-c][1,2]benzoxaborinine-6-carboxylic acid]	X (X = MPC@4 ≤ 5 μg/mL)	X (X = MPC@4 ≤ 5 μg/mL)	X (X = MPC@1 ≤ 5 μg/mL)	X (X = MPC@1 ≤ 5 μg/mL)	Y (Y = 5 μg/mL < MPC@1 ≤ 20 μg/mL)	Y (Y = 5 μg/mL < MPC@1 ≤ 20 μg/mL)	Y (Y = 5 μg/mL < MPC@1 ≤ 20 μg/mL)	X (X = MPC@4 ≤ 5 μg/mL)	X (X = MPC@4 ≤ 5 μg/mL)	–	–	–	–	–	–	–
C[C@]1(Cn2ccnn2)[C@H](C(=O)O)N2C(=O)C[C@H]2S1(=O)=O [Tazobactam, reference compound]	Y (Y = 5 μg/mL < MPC@4 ≤ 20 μg/mL)	X (X = MPC@4 ≤ 5 μg/mL)	Z (Z = MPC@1 > 20 μg/mL)	Y (Y = 5 μg/mL < MPC@1 ≤ 20 μg/mL)	Z (Z = MPC@1 > 20 μg/mL)	Z (Z = MPC@1 > 20 μg/mL)	–	Z (Z = MPC@4 > 20 μg/mL)	Z (Z = MPC@4 > 20 μg/mL)	X (X = MPC@4 ≤ 5 μg/mL)	Y (Y = 5 μg/mL < MPC@4 ≤ 20 μg/mL)	Y (Y = 5 μg/mL < MPC@4 ≤ 20 μg/mL)	X (X = MPC@4 ≤ 5 μg/mL)	Y (Y = 5 μg/mL < MPC@4 ≤ 20 μg/mL)	Y (Y = 5 μg/mL < MPC@4 ≤ 20 μg/mL)	X (X = MPC@4 ≤ 5 μg/mL)
